Reference: ChEMBL document CHEMBL4888484, “Replenishing the malaria drug discovery pipeline: Screening and hit evaluation of the MMV Hit Generation Library 1 (HGL1) against asexual blood stage Plasmodium falciparum ,using a nano luciferase reporter read-out” (2022)
The whole screen tested about 150,000 compounds, of which about 540 (0.36%) showed an effect of 50% or more. The list shows a part of the results.

tested on: Plasmodium falciparum; test: Primary screen in NF54 nanoGlo assay, in single point, at 2uM, 72h; a lower Z score goes with more inhibition; format: functional, Erythrocyte; conditions: timepoint 72 hour

| Compound | % Inhibition [%] | Z score |
| --- | --- | --- |
| c1ccc(CN2CCOCCOCCOCCOCCOCCOCC2)cc1 | -9 | 1.27 |
| CCN(CCC(=O)NC(N)=O)Cc1cc(Br)ccc1F | -6 | 0.89 |
| CC1=CCCC(C)C1CN1CC(C(N)=O)O[C@H](C)C1 (some centres undefined) | 3 | -0.44 |
| Cc1cc(C)nc(NS(=O)(=O)c2ccc(NC(=O)c3cc(-c4ccc(C)c(F)c4)on3)cc2)n1 | -7 | 1.32 |
| COC(=O)c1ccc(NC(=O)[C@@H]2CCCCN2)cc1 | -8 | 0.72 |
| CCC1(CC)C(NC(=O)C2(C#N)C(C#N)C2(C)C)CC1OC (centres undefined) | -11 | 1.65 |
| Cc1cc(C(=O)NC2CCS(=O)(=O)CC2)nc(C)n1 | 0 | 0.09 |
| Cc1cc(S(=O)(=O)NCCc2ccsc2)sc1Cl | -13 | 1.24 |
| O=S(=O)(c1cccc(-c2nnco2)c1)N1CCCC1 | -14 | 1.55 |
| Cc1nc(C(=O)NC(C)(C)c2cccc(Cl)c2F)c(=O)[nH]c1C | -14 | 2.99 |
| Cc1ccc(-n2nc(C)c3sc(N4CCC[C@H](C(=O)NCc5c[nH]nc5C)C4)nc32)cc1 | -13 | 1.67 |
| COc1cccc(-c2nc3ccc(-c4ccccc4)cn3c2CCC(=O)Nc2ccccc2)c1 | -5 | 0.45 |
| CC1CCN(C(=O)c2snc(-c3cccc(F)c3)c2N)CC1 | -15 | 1.78 |
| COc1ccc(-c2nc(Cn3nc(C)c4c(C)onc4c3=O)c(C)o2)cc1OC | -11 | 1.06 |
| Cc1ccc(OC2CCCN(C(=O)C3CC=CCC3)C2)nn1 (centres undefined) | -10 | 1.7 |
| O=C(c1ccc2ccccc2c1)N(Cc1ccco1)C1CC1 | -7 | 0.76 |
| Cc1ccncc1N1CCN(C(=O)c2cc[nH]c(=O)c2)CC1 | -12 | 1.98 |
| C[C@H]1CS(=O)(=O)C[C@H]1NC(=O)c1cc(F)cc2[nH]nnc12 | -7 | 1.23 |
| CNC(=O)[C@@H]1C[C@H](Oc2ccccc2)CN1C1CCN(C(=O)c2cnn(C)c2)CC1 | -5 | 0.61 |
| COc1ccc(CCNC(=O)N2C(=O)c3ccccc3C2=O)cc1OC | 1 | -0.13 |
| CCOc1ccccc1CNC(=O)c1nc(C2CCC2)oc1C | -1 | 0.09 |

| Compound | % Inhibition [%] | Z score |
| --- | --- | --- |
| Cc1cc(C(=O)N2CC[C@@H]3OCc4cccc(c4)Oc4cccc(c4)CCC(=O)N(C)CC(=O)N[C@@H]3C2)nn1C | 0 | -0.05 |
| Cc1ncn(C[C@H](O)COCc2ccccc2)c(=O)c1C | -4 | 0.53 |
| c1cc(OC23CCCN(CC2)C3)cc(-c2nnco2)c1 (centres undefined) | -6 | 0.77 |
| C[C@H]1CCc2[nH]c3ccc(C(=O)N4CCC(C(=O)Nc5ccc6c(c5)OCO6)CC4)cc3c2C1 | -5 | 0.98 |
| CC(=O)N1CCN(C(=O)CCc2c(-c3ccc(Cl)cc3)nc3ccc(-c4cccc(C(F)(F)F)c4)cn23)CC1 | -14 | 1.68 |
| CC(C)NC(=O)NC1C2C3CCC(C3)C12 (centres undefined) | -3 | 0.57 |
| O=C(c1conc1C1CC1)N1CCCC2(CCCC2)C1 | 1 | -0.17 |
| CCS(=O)(=O)Nc1cc(C(=O)NCCc2cnccn2)c2c(c1)nc(-c1ccccc1)n2C | 8 | -1.16 |
| Cc1ccc(CC(=O)N2CCc3[nH]nc(C(=O)NCCCc4ccccc4)c3C2)cc1 | -9 | 1.41 |
| CCN(Cc1noc(C2CCC2)n1)C(=O)[C@@H](c1cccnc1)N1CCCC1 | -6 | 0.7 |
| CCc1cccc(C)c1NC(=O)[C@H]1CCCN(S(=O)(=O)c2ccc3ccccc3c2)C1 | -5 | 0.82 |
| CCc1nc(CC(=O)N(CC#N)C2CC2)cs1 | -6 | 0.83 |
| CCc1cc(-c2nc(CCOC)nn2-c2ccc3nc(C)sc3c2)on1 | -6 | 1.05 |
| Cc1ccnc2nc(C(=O)N(CC3CC3)CC(F)(F)F)nn12 | 37 | -1.11 |
| Cc1cc(OC[C@@H](O)CNC(C)(C)CC(C)(C)C)cc(C)c1Cl | 51 | -6.83 |
| O=c1cc(N[C@@H](c2cccc(C(F)(F)F)c2)C2CC2)nc2ccccn12 | 17 | -2.15 |
| Cc1cc(CNC2CC(C)(c3ccccc3)C2)on1 (centres undefined) | -12 | 1.65 |
| COC(=O)[C@@H]1Cc2nc[nH]c2CN1Cc1cnc(-c2ccccc2C)s1 | 0 | 0.03 |
| CC(C)c1nn(C)cc1C(=O)NC[C@]1(O)CCCC1(C)C | 34 | -3.88 |
| CCCNC(=O)c1n[nH]c2c1CCc1cc(OC)ccc1-2 | -10 | 1.74 |
| Cc1cc(C(=O)N2CC3(CCC3)[C@H]2c2cccnc2)ns1 | -4 | 0.69 |

| Compound | % Inhibition [%] | Z score |
| --- | --- | --- |
| COc1ccc(CNCc2cc(F)ccc2C)cc1OC[C@@H](O)CN1CCCCC1 | 9 | -1.81 |
| COc1ccc(C(=O)N2CCCCCCNC(=O)[C@@H]3CCC[C@@H]32)cn1 | -5 | 0.62 |
| O=S(=O)(NCc1ccccc1)Nc1ccc(-c2cn[nH]c2)cc1 | -2 | 0.32 |
| COC(=O)C[C@H](c1cc(OC)c2c(c1)OCCO2)c1c(O)n[nH]c1Cc1ccc(OC)cc1 | -9 | 1.14 |
| O=c1c(C(F)(F)F)cccn1Cc1ccc2ccccc2n1 | -7 | 0.8 |
| COc1ccc(C2(C)NC(=O)N(CC(=O)N(CC(C)C)C3CCS(=O)(=O)C3)C2=O)cc1OC (centres undefined) | -11 | 1.12 |
| CC(C)S(=O)(=O)NCCOc1ccc(C(C)(C)C)cc1 | 1 | -0.05 |
| O=C(Nc1ncccc1O)c1ccc2[nH]cnc2c1 | -14 | 2.69 |
| COCCN1CCN(CC(=O)N2CCC[C@H]2c2ccsc2)CC1 | -1 | 0.13 |
| Nc1c2c(-c3ccc(F)cc3)nc(N3CCc4ccccc4C3)nc2nn1-c1ccccc1 | 6 | -1.03 |
| O=C(c1ccccc1C(F)(F)F)N1CC(Oc2cccnc2)C1 | -10 | 1.9 |
| c1ccc(-c2noc(-c3cc4n(n3)C[C@@H](c3ccccc3)OC4)n2)cc1 | -17 | 1.95 |
| NC(=O)CC[C@H]1NC(=O)[C@H](c2ccccc2)NC1=O | -11 | 1.31 |
| CCCCCc1nnc(NC(=O)N2CCN(C(=O)c3nc[nH]n3)CC2)s1 | -3 | 0.44 |
| O=C(NC[C@H]1CCCO1)[C@H]1OCC[C@H]1c1ccccc1 | -8 | 1.12 |
| CC(C)(C)[C@H]1CCc2c(sc(NC(=O)c3cc(-c4ccccc4)nc4ccccc34)c2C#N)C1 | 13 | -1.58 |
| Cc1nc(N2CCOCC2)cc(N2CCN(C(=O)c3cccc(F)c3)CC2)n1 | -2 | 0.26 |
| CN1C(=O)NC2(CCN(C(=O)Nc3cccc(OC(F)F)c3)CC2)C1=O | 3 | -0.48 |
| COc1cc(OC)cc(C(=O)Nn2cc(C(=O)Nc3cnc4ccccc4c3)c3ccccc3c2=O)c1 | -3 | 0.63 |
| CCC(=O)N(Cc1ccc(F)cc1)Cc1c(-c2cccc(C)c2)noc1N1CCOCC1 | -17 | 1.62 |
| CC1C(C(F)(F)F)CCCN1C(=O)c1ccc2nncn2c1 (centres undefined) | -4 | 0.53 |

| Compound | % Inhibition [%] | Z score |
| --- | --- | --- |
| Cc1cc(C)c2[nH]c(C(=O)N3CCC[C@H]3CN3CCCC3)c(C)c2c1 | 0 | 0.01 |
| CN(C)S(=O)(=O)c1ccc(NS(C)(=O)=O)cc1F | -8 | 1.42 |
| c1ccc(CNc2nc(-c3cccnc3)ns2)cc1 | -10 | 0.94 |
| COc1cccc(-c2ccc(N3CCN(C(=O)CN(CCN4CCOCC4)C(=O)CC(C)C)CC3)nn2)c1 | -18 | 2.6 |
| O=C(Nc1ccc(N2CCCC2=O)cc1)N1CCOC[C@@H](O)C1 | 1 | -0.26 |
| Cn1cc(S(=O)(=O)NC(=O)[C@H]2CC2(Cl)Cl)c2ccccc21 | -4 | 0.53 |
| CCOc1ccc(-c2[nH]c3ccc(Cl)c[n+]3c2C)cc1 | -11 | 2.08 |
| CCC1(CC)C(=O)N(C)C(=O)N(C)/C1=N/c1ccc(OC)cc1 | -19 | 2.27 |
| CC(C)[C@H](CNC(=O)NCc1cc(C(N)=O)co1)Cc1ccccc1 | 3 | -0.42 |
| Cc1cccc(OCC(=O)c2ccc3c(c2)N([C@@H](C)C(=O)N2CCOCC2)C(=O)CO3)c1 | -25 | 2.69 |
| CCOc1nc(C)ccc1C(=O)N1CC(OC(C)C)C1 | -11 | 1.37 |
| O=C(Cn1cc(C(=O)c2ccncc2)c(=O)c2cc(Br)ccc21)Nc1cccc(F)c1 | -11 | 1.37 |
| COc1cccc(OC[C@@H](O)CNC(=O)c2ccc3[nH]c(CO)nc3c2)c1 | -2 | 0.27 |
| Cc1ccc(C(=O)NCC(=O)c2ccco2)c(F)c1 | -2 | 0.24 |
| Cc1cnc(N2Cc3nnc(C4CCOCC4)n3[C@@H](Cc3c[nH]cn3)C2)nc1 | 1 | -0.09 |
| Cc1cccc(Nc2ncnc(C)c2C)n1 | 1 | -0.16 |
| CNC(=O)NC(=O)CNC1CCCCC1C(C)(C)C (centres undefined) | -2 | 0.29 |
| C[C@@H]1CN(C(=O)C2CCCOC2)C[C@H](C)N1CCO (some centres undefined) | -3 | 0.62 |
| Cn1cc(CN2CC(F)(F)C(F)(F)C2)cn1 | 4 | -0.65 |
